Source: article PMC7694937
No constants are given. Whether binding was seen depends on the method and setting. Binding seen in cells or lysates may run through a third protein. Some binding calls cover weakened binding; strength is not graded here. Where a sequence is shown, tags or fusion partners need not be part of it.

Chains of the proteins cited; added tags and fusions are not shown.
UniProt P49023: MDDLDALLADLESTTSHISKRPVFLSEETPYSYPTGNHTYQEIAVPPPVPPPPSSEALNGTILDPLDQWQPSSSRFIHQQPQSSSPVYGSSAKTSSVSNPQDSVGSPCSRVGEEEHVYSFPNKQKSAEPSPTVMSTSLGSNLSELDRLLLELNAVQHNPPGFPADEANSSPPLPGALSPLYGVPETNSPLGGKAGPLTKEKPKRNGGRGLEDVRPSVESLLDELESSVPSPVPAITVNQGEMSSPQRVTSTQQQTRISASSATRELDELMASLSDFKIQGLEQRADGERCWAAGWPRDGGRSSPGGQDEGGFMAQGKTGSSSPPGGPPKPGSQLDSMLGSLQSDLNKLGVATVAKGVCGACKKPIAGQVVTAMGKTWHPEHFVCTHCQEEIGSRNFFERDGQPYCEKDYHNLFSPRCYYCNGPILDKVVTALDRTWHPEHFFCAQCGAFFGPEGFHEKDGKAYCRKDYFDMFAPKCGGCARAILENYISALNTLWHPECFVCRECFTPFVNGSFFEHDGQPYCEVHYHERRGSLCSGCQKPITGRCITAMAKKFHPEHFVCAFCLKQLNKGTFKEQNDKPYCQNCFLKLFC

Tests used:
Flag-P2X7R(47–595) = target: T1, Flag-P2X7R(47–595) (UniProt Q99572); experiment: co-IP; HEK293T cells co-transfected with Flag- and HA-tagged plasmids; lysis in 50 mM Tris-HCl pH 7.5, 300 mM NaCl, 1% Triton-X, 5 mM EDTA, 10% glycerol; IP with anti-Flag antibody and Protein-G Sepharose, immunoblot with anti-HA and anti-Flag; in some panels cells treated with DMSO or ATP (5 mM) for 2 h; Fig. 6d-g shown as pairs of IPs whose antibodies the legend does not name
T1 sequence: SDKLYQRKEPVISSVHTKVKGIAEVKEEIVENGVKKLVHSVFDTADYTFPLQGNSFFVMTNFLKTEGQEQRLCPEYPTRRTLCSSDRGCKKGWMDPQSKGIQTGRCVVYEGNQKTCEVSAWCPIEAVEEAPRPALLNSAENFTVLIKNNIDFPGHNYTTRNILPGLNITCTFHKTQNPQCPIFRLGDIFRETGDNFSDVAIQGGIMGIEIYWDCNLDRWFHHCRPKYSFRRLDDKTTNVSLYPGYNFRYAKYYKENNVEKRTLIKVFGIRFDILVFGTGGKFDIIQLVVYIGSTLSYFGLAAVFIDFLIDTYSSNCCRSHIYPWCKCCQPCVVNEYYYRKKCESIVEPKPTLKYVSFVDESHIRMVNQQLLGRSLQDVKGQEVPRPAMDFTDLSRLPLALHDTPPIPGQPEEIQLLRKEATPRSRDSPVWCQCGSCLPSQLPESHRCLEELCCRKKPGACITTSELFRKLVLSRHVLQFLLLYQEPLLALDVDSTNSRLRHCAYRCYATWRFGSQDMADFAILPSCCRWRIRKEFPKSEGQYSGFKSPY

Flag-P2X7R = target: T2, Flag-P2X7R (UniProt Q99572); experiment: as above
T2 sequence: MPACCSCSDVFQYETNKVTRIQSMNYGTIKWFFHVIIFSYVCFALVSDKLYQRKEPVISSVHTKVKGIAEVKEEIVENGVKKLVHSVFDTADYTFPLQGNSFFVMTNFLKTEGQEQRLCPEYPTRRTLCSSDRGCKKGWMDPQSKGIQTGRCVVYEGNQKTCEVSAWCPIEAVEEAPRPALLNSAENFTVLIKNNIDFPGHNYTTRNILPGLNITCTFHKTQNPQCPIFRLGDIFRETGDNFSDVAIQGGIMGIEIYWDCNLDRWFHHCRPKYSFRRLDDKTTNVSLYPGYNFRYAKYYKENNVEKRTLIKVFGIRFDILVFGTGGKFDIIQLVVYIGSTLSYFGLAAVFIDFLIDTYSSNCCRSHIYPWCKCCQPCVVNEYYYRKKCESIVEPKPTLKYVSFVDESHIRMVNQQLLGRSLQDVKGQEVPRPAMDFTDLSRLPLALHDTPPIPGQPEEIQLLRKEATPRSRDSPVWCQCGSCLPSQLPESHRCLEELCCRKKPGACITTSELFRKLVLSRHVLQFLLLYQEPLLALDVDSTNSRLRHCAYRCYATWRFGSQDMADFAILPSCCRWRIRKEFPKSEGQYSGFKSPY

For HA-Paxillin (from UniProt P49023 1-591), the binding (Flag-P2X7R(47–595)) was “no binding” and the binding (Flag-P2X7R) was “binds”.
